Measurements published in the RNAGym collection of RNA variant scans (doi:10.7554/elife.90254).
The source gives no read counts; variants with many changes may rest on few reads.

B1: LINE1-mini (parent)
chain: GGCAGAGCUCAACACAGCGUGGCAAAGUGGCUGUGGCUAGACUGCC

Variants of: B1
Assay: self-cleavage, relative activity (ratio to wild type); higher = more cleavage; in vitro, sequencing; the parent is a self-cleaving ribozyme

| Variant | self-cleavage |
| --- | --- |
| GGCAGAGCUCCACACAGCGUGGCAAAGUGGCUGACGCUAGACCGCC | 0.02 |
| GGCAGAGCUCAACACGGCGUGGCAAAGUGGCUUUGGCAAGACUGCC | 0.02 |
| GGCAGAGCUCAAAAGAGCGUGGCAAAGUGGCUGUCGCUAGAGUGCC | 0.02 |
| GGCAGAGCUCAACACAGCGAGGCAAAUUGGCUGUGGCUAGACUGGC | 0.89 |
| GGCAGCGCUCAACACCGCGUGGCAAAGUGGCUGUGCCUAGACUGCC | 0 |
| GGCAGGGCUCCACACAGCGUGGCUAAGUUGCUGUGGCUAGACUGCC | 0.01 |
| GGCAGAGGUCAACCCAGCGUGGCAAAUUGGCUGUGCCUAGACUGCC | 0.03 |
| UUUAGAUCUAAACACAGCGUGGCAAAGUGGAUGUGGCUAGACUGCC | 0.05 |
| GGCAGAGCUCAACACAGCGUGGCCAAAUGGCUGUGGCGAGACGGCC | 0 |
| GGCAGAGCUCAGCACAGCGUGGCAAAGUGGCUGUGGAGAUACUGCC | 0.03 |
| GGCAGGGCUUAACACAGCGUGGCAAAGUGGCUGUGGUUAGACUGCC | 0.01 |
| GGCAGAGCUGAACACAGCCUGGCAAAGUGGCUGUGGCUUGAGUGCC | 0.02 |
| GGCCGAGCUCAACAUAGCGUGGCAAAGUGGCAGUGGCUAGCCUGCC | 0.28 |
| GGCAGAGCUCAACACAGCGUGGCAAAGUAUCUGUGGCUACACUGCC | 0.04 |
| GGCAGAGCUCAACACAGUCUGGCAAAUUGGCUGUGGCUACACUGAC | 0.05 |
| GGCAGAGCUCGAUACAGCGUGGCAAAGUUGGUGUGGCUAGACUGCC | 0 |
| GGCAGAACUCAACACAGCGUGGCUAAGUGGCUGUGGCUAGACGGCC | 0.09 |
| GGCAGACCUCAACUCAGCGUGGUAAAGUGGUUGUGGCUAGACUGCC | 0.08 |
| GGCAGAGCUCAACUCAGCGUUGCAAAGUGGCUGUGGCUAGACUGUC | 0.95 |

| Variant | self-cleavage |
| --- | --- |
| GGGAGAGCUCAACCCCGCGUGGCAAAGUGGCUGUGGCUAGACUGCC | 0.01 |
| GGCAGAGCUUAACACAGCGUGGCCAAGUGGCUGUGGCUAGACUGCA | 0.13 |
| GUCAGAGCUCAACACAGCGUUGCAAAGUGGCUGUGGCUAGAAUGCC | 0.01 |
| GGCAGAGCUCAGUACCGCGUGGCAAAGUGGGUGUGGCUAGACUGCC | 0.05 |
| GCCGGAGCUCAACACAGCGUGGCACAGUGGCUGUGGCGAGACUGCC | 0.01 |
| GGCAGAGCUCUACACAGCGUGGCAAUGUGGCUGUUGCUACACAGAC | 0.06 |
| GGCAGAGCCCAACACAGCGUGGCAAAGUUGCUGUGGCUAGACUGAC | 0.07 |
| GGCAGCGCUCAACCCAGCUUCGCAAAGUGGCUGUGGCUGGACGGCC | 0.11 |
| GGCAGAGCUCAGCACAACGUGGCAAAGUCGCUGUGGCUAAAUUGCC | 0.01 |
| GGCAGAGCUAAACACACCGUGGCAAAAUGGCUGUGGCUAGACUGCC | 0.03 |
| GUCAGAGCUCAACACAGCGUGGUAAAGUGGCAGUGGCUAGACAGCC | 0.21 |
| GACGGAGCUCAACACAGCGUGGCAAAGUGGCUGUCGCUAGACUGGC | 0.38 |
| GGCAGAGCUCAAUACGGCAUGGCAAAGUGCCUGUGGCUAGACUGCC | 0.03 |
| CGCAGAGCUCUUCACAGCGUGGCAAAGUGGCGGUGCCUAAACUGCC | 0.01 |
| GGCAAAGCUCAAUACAGCGUGGCAAAGUGGCUGUUGCUAGACUGCC | 0.09 |
| GGCAGAGCUCAACAUAGCGUGGCAACGUGGCUGUGGCAAGACUGCC | 0.2 |
| GGCAUAGCUCACCACAGCGUGGCAAAGUGGCUGUAGCUAGCCUGCC | 0.23 |
| GGCAGAGCUCAACACAGCCUGGCAAGGUGGCUGUGGCUGGACUGCC | 0.03 |
| GGAAGAGCUCAACAAAACGUGGCAAAGUGGCUGUGGCUAGACUGCC | 0.24 |

| Variant | self-cleavage |
| --- | --- |
| AGCAGAGCUAAACACAGCGUGGGAAAGUGGCUGUGGCUAGACUGCC | 0.05 |
| GGUAGAGCCCGACACAGCGUGGCGAAGUGGCUGUGGCUAGACUGCC | 0.02 |
| GGUAGAGCUCAACACAGCGUGGUAAAGUGGCCGUGGCUAGACUGCC | 0.07 |
| GGCAGAGCUAGACACAGCGUGGCAAAGUGGCUGUGGCUAAACUGCC | 0.02 |
| GGCUGACCUCAACACAGCUAGGCAAAGUUGCGGUGGCUAGACUGGC | 0.04 |
| GUCAGAGGUCAACACAGCGUGGCACAGUUGCUGUGGCUAGACUGCC | 0 |
| GGCAGAGCUCAACAUAGCGUGGCGAAGUGGCUGUGGCUAUACUGCC | 0.02 |
| UGCAGCGCUCAAUACAGCGUGGCACAGGGGCUGUGGCUAGACUGCC | 0.01 |
| GGAAGAGCUCAACGCAGCGUGGCAAAGUGUCUGUGGCUAGCCUGCC | 0.03 |
| GGCAGAUCUCAACACAGGGUGGCAAAGUGGCUGUGACUAGAUUGCC | 0.91 |
| GGCAGAGCUUAACACAGCGUGGCAAACUGGCUGUGCAUAGACUGCC | 0.02 |
| GGCGUAGCUCAACAGAGCGUGGCAAAAUUGCUGGGGCUAUACUGCU | 0.01 |
| GGCAGAGCUCAACACAGCUUGGCAAAGUGGCUGUGUGUAGACUGCC | 0.01 |
| GGCAGAGAUCAACACAGGAUGGCAAAGUGGCUGUGGCUAGACUGCC | 0.05 |
| GGUAGAGCUCAACACAGCGUGGCUAAGUGGCUGUGGCUAUACUGCC | 0.09 |
| GGCAGAGCUCAACACAGGGUGGGAAAGUGGCUGUGGCUAGACUUCC | 0.03 |
| GGUAGACCUCAACACAGCGUGGCAAAUUGGAUAUGGCUAGACUGCC | 0.02 |
| GGCAGAGCUCGAAACAGCGUGGCAAAGUGGCUGUAGCUAGACUGCC | 0.01 |
